# In all, about 110,000 compounds were measured (“z-score”: median about -0.1, highest 2% from about 2 on). The list shows a part of the results. Activity calls are given as the source filed them.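 The calls were made as follows: active = z-score in the third read window above 3 or below -3; inactive = the rest.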
# Target: Metabotropic glutamate receptor 8 (Rattus norvegicus) (UniProt P70579)
# Assay: rat mGluR8 modulators via GIRK flux, primary screen, cell-based, thallium flux, HTS (AID 488969)
# Details: HEK293 rat mGluR8, GIRK (G protein-gated inwardly rectifying potassium channel) thallium flux, FluoZin2; at 10 µM; stronger effect = higher value; submaximal glutamate (EC20) added with thallium
# UniProt P70579, sequence (P70579 whole entry, looked up): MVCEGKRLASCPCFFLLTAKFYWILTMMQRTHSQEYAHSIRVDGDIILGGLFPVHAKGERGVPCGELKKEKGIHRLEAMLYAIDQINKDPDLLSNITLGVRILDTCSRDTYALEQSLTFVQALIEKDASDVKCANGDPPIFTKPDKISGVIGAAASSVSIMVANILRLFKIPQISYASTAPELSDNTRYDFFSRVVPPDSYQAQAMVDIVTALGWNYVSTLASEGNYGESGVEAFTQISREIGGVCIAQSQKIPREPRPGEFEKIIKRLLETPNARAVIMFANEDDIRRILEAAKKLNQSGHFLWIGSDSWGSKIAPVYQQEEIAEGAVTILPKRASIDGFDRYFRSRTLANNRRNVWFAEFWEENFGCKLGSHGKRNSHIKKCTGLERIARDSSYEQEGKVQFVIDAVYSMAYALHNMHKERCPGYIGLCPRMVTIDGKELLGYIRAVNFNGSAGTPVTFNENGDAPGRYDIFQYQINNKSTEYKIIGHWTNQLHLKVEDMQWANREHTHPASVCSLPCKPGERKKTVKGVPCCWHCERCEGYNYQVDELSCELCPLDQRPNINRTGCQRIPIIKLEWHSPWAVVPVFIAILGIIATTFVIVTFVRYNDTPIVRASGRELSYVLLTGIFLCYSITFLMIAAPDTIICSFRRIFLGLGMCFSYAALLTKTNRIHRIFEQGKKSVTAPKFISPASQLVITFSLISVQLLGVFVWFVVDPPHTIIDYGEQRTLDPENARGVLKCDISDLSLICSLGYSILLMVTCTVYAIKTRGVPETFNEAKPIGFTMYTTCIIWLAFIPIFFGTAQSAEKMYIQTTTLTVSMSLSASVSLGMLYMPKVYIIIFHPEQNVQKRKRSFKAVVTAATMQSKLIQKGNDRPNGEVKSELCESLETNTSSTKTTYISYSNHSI
row,SMILES,z-score
1,Cc1ccc2c(c1)C1CN(C)CCC1N2C(=O)c1ccccc1NS(=O)(=O)c1ccc(F)cc1 (stereo not drawn),-0.699
2,O=C(NCc1cccs1)C1CCC(CNS(=O)(=O)c2cccs2)CC1 (stereo not drawn),-0.00847
3,COc1ccc(-n2c(C)nc3c(cnn3-c3ccc(Cl)cc3)c2=O)cc1,-0.692
4,COc1ccc(NC(=O)CCNC(=O)Cn2ccc3ccccc3c2=O)c(OC)c1,-0.123
5,O=C(CCCn1c(SCC(=O)NCC2CCCO2)nc2ccccc2c1=O)NCC1CCCO1 (stereo not drawn),0.0275
6,CCOCC(=O)Nc1ccc(S(=O)(=O)NCCc2ccccc2)cc1,-0.0788
7,COc1cc([N+](=O)[O-])ccc1NC(=O)CCCOc1ccc(C)cc1,-0.467
8,O=C(/C=C/c1ccc(-c2ccccc2)o1)c1ccccc1,-0.298
9,Cc1c(Cl)c([N+](=O)[O-])nn1Cc1ccc(C(=O)N/N=C\c2cc(Cl)ccc2O)o1,0.0342
10,Cc1ccccc1NC(=S)N(C)Cc1cccs1,0.0767
11,O=C(Cn1ccc(C(F)(F)F)n1)N/N=C/c1cccs1,0.542
12,COCCNC(=O)C(C#N)c1nc2ccccc2nc1N1CCCCCC1 (stereo not drawn),-2.4
13,CCNS(=O)(=O)c1ccc(C)c(-n2cnnn2)c1C,0.244
14,O=C(Nc1cc(C(F)(F)F)ccc1N1CCCCC1)c1cccc([N+](=O)[O-])c1,-0.0811
15,COc1ccc(C2CC(=O)Nc3cc(C)c(C)cc32)c(OC)c1OC (stereo not drawn),-0.209
16,COc1ccc(S(=O)(=O)NCC(c2cccnc2)N2CCN(C)CC2)cc1C (stereo not drawn),-0.387
17,COCCNC(=O)CN1CCN(C(c2ccccc2)c2ccccc2)CC1,0.25
18,CCOC(=O)c1ccc(NC(=O)CSc2nnnn2C2CCCCC2)cc1,-0.166
19,O=C(CC12CC3CC(CC(C3)C1)C2)N1CCCC1,-0.327
20,c1ccc(OCCCn2nnc(-c3ccc(N4CCOCC4)cc3)n2)cc1,-0.423
21,CC(=O)OCC1OC(Nc2cccc(C)c2)C(OC(C)=O)C(OC(C)=O)C1OC(C)=O (stereo not drawn),-0.349
22,Cn1nc(-c2ccc(C(=O)N3CCN(CCO)CC3)cc2)c2ccccc2c1=O,-0.0208

row,SMILES,z-score
1,Cc1ccccc1N=C1c2cc([N+](=O)[O-])ccc2-c2ncccc21,-0.0207
2,CC1(C)CC2CC(C)(CN2C(=O)C23CCC(C)(C(=O)O2)C3(C)C)C1 (stereo not drawn),0.0773
3,CC(OC(=O)CCCOc1ccccc1)C(=O)NC(N)=O (stereo not drawn),0.0976
4,O=C(c1ccccc1)c1ccc(OCC(O)CN2CCOCC2)cc1 (stereo not drawn),-0.0655
5,CCN(CC)CCN1C(=O)C(=O)/C(=C(/O)c2c(C)[nH]c(C(=O)OC)c2C)C1c1ccco1 (stereo not drawn),-0.0729
6,Cc1cc(C(F)(F)F)c(C#N)c(SCC(=O)NC2CC2)n1,0.155
7,CS(=O)(=O)N(CC(=O)N1CCN(c2ccccc2)CC1)C1CCCCC1,0.084
8,Cc1ccc2c(c1)N(C(C)C(=O)NCCc1ccccc1)C(=O)CO2 (stereo not drawn),0.21
9,O=C(NCc1ccc2c(c1)OCO2)C(=O)NC1CCCCC1,-0.077
10,CCCCN=Cc1sc2ccc(OCC)cc2c1O,-0.188
11,CCc1ccc(Oc2coc3cc(OC(=O)c4cc5ccccc5oc4=O)ccc3c2=O)cc1,-0.44
12,CC1=C(C#N)C(Nc2ccc(C)cn2)(C(F)(F)F)C(=O)N1 (stereo not drawn),-0.145
13,Nc1ncn(C23CC4CC(CC(C4)C2)C3)n1,-0.106
14,COc1ccc(NC(=O)CC2C(=O)N(C)C(=S)N2Cc2cccs2)cc1 (stereo not drawn),0.108
15,Cc1ccc2oc(=O)c3cnn(CC(=O)N4CCc5ccccc5C4)c3c2c1,active: -3.05
16,CCOc1ccccc1C(=O)N(Cc1ccccc1)Cc1cc2cc3c(cc2[nH]c1=O)OCCO3,0.283
17,COc1cc(/C=C(/C#N)c2ccccc2F)ccc1OCc1ccccc1,0.205
18,COC(=O)c1ccccc1NC(=O)CN(c1ccc(OC)cc1)S(C)(=O)=O,-0.0266
19,COc1ccc(C2C=C(Nc3ccccc3)C(=O)N2c2ccccc2)cc1OC (stereo not drawn),-0.22
20,O=C(Nc1nc2ccc(S(=O)(=O)N3CCCCC3)cc2s1)C1CCCO1 (stereo not drawn),-0.0835
21,CC(O)c1n(C)c(Cl)c[n+]1C (stereo not drawn),-0.00128
22,O=C(CSc1n[nH]c(-c2ccncc2)n1)NCCc1ccccc1,-0.989

row,SMILES,z-score
1,COc1ccc(CC(=O)Oc2cc(C)[nH]c(=O)c2[N+](=O)[O-])cc1,0.172
2,CN=C1SC(CC(=O)Nc2ccc(N3CCOCC3)cc2)C(=O)N1C (stereo not drawn),0.0196
3,Cc1ccc(-c2nn3c(C)nnc3s2)cc1NC(=O)CSc1ccc(Cl)cc1,-1.61
4,CC(C)CC(NS(=O)(=O)c1ccc2c(c1)oc(=O)n2C)C(=O)N1CC=C(c2ccccc2)CC1 (stereo not drawn),-0.272
5,Cn1c(=O)cc(OCCCC(=O)NCc2ccco2)c2ccccc21,-0.291
6,COc1cccc(CNC(=O)CCCNS(=O)(=O)c2cccs2)c1,0.635
7,CCn1c(SCC(=O)Nc2ccccc2C(=O)OC)nnc1-c1cccc(C)c1,-2.11
8,COc1ccc2cc(CN(CCc3ccccc3)Cc3nnnn3CC3CCCO3)c(=O)[nH]c2c1 (stereo not drawn),0.287
9,Cc1onc(-c2c(Cl)cccc2Cl)c1C(=O)N1CCc2ccccc2C1,0.0144
10,CN(Cc1ccccc1)C(=O)c1ccccc1NC(=O)c1ccco1,-0.926
11,CCOC(=O)Cc1csc(NC(=O)CSc2nnc(-c3cccnc3)n2Cc2ccco2)n1,-0.85
12,COC(=O)c1ccc(CSc2nnc(C)n2N)o1,-0.0453
13,O=C(Cn1cnc2ccccc21)NCc1ccccc1,0.289
14,COC(=O)c1ccccc1NC(=O)Cn1c(=O)oc2ccc(Cl)cc21,-0.469
15,Cc1csc(NC(=O)CSc2nc3ccccc3c3c2CCCC3)n1,-0.385
16,COc1cc(C)ccc1OCCOc1c(C)cccc1Cl,0.489
17,CC(C)CC(NC(=O)c1ccc(Cl)cc1)C(=O)OCC(=O)c1ccc2c(c1)NC(=O)CO2 (stereo not drawn),0.362
18,CCn1ncc(NC(=O)Nc2cccc(C(F)(F)F)c2)c1C(N)=O,0.142
19,Cc1ccc2c(c1)/C(=N/OC(=O)c1ccc(F)cc1)CCS2,0.238
20,O=C(Cn1nnc(-c2ccccc2)n1)N/N=C/c1cccc([N+](=O)[O-])c1,-0.0724
21,CCC(CC)C(=O)Nc1cccc(C(=O)Nc2ccc(OC)cc2[N+](=O)[O-])c1,-0.105
22,COc1ccc(Nc2nc(N)nc(CSc3nccc(C)n3)n2)cc1,0.0732

row,SMILES,z-score
1,Cn1cccc1C(=O)NC(=O)CSc1nc2ccccc2s1,-0.728
2,CCOc1cc(C2CC(=O)c3c(ccc4ccccc34)N2)ccc1O (stereo not drawn),-0.494
3,CCCCNc1ccc2nsnc2c1[N+](=O)[O-],-0.137
4,COc1ccc(C(=O)c2ccccc2)cc1Br,-0.139
5,CCn1cc(/C=C2\SC(=O)N(CC(=O)Nc3ccc4c(c3)OCO4)C2=O)c2ccccc21,-0.0436
6,O=C(C1CCCN(S(=O)(=O)c2cccc3nonc23)C1)N1CCN(c2ccccc2)CC1 (stereo not drawn),0.485
7,O=C(CCSc1nc(-c2ccc3c(c2)OCO3)cc(C(F)(F)F)n1)NCc1ccccc1,-0.215
8,COc1ccc(-n2c(C)cc(C(=O)COC(=O)c3cc(NC(=O)c4cccs4)c(OC)c(OC)c3)c2C)cc1,0.389
9,O=c1c2cccc3c2c(nn1CN1CCOCC1)-c1ccccc1-3,-1.08
10,COc1cccc2c(=O)n(CC(=O)N3CCCc4ccccc43)ccc12,-0.129
11,O=C1NCCc2cc3c(cc21)OCO3,-0.197
12,Cc1ccc(-c2csc3nc(C)n(N)c(=O)c23)o1,0.0499
13,CCn1cnc2c1c(=O)n(CC(=O)Nc1ccc3c(c1)OC(F)(F)O3)c(=O)n2Cc1ccccc1,0.285
14,CN1CCN(Cc2oc(CO)cc(=O)c2O)CC1,-0.42
15,Cc1ccc(-n2nnnc2SCC(=O)NCCC2=CCCCC2)c(C)c1,0.08
16,O=C(Cc1c(C(=O)O)[nH]c2ccc(Cl)cc12)Nc1ccc2c(c1)OCCO2,0.0508
17,N#C/C(=C(/O)CN1C(=O)c2ccccc2C1=O)c1nc2ccccc2[nH]1,-0.113
18,COc1ccccc1CNCC(O)Cn1c2ccccc2c2ccccc21 (stereo not drawn),0.425
19,CC(CO)(CO)NCc1ccc(-c2ccccc2)cc1,0.171
20,Cc1ccc(S(=O)(=O)N2CCCC2C(=O)Nc2nc3c(s2)CCCC3)cc1 (stereo not drawn),-0.735
21,Cc1cccc(N2CCN(S(=O)(=O)c3ccc4c(c3)CCC(=O)N4)CC2C)c1 (stereo not drawn),-0.531
22,O=C(CCn1cnc2ccccc2c1=O)Nc1ccc(S(=O)(=O)N2CCCCC2)cc1,-0.448

row,SMILES,z-score
1,O=Cc1cc2ccccc2nc1SCc1ccc(Cl)cc1,-0.116
2,COc1ccc(S(=O)(=O)N2Cc3ccccc3CC2C(=O)O)cc1OC (stereo not drawn),-0.354
3,O=S(=O)(N/N=C/c1cn(Cc2ccccc2)c2ccccc12)c1ccccc1,-0.216
4,COC(=O)C1CCN(C(=O)COc2cc3sc(C)nc3c3sccc23)CC1,-1.34
5,C=CCN=Cc1sc2ccc(OCC)cc2c1O,0.0996
6,Cc1cc(-c2n[nH]c(=S)n2/N=C/c2ccc(Br)s2)n[nH]1,active: 4.55
7,COc1ccccc1NC(=O)CSc1nnc(C)n1CCc1ccccc1,-0.918
8,CS(=O)(=O)N1CCC(C(=O)Nc2ccccc2Sc2ccccc2)CC1,0.457
9,Cc1ccc(S(=O)(=O)NCC2CCC(C(=O)NCc3ccco3)CC2)cc1 (stereo not drawn),-0.0755
10,Cc1sc(N/N=C/C=C/c2ccccc2)nc1-c1ccccc1,2.08e-05
11,CN(C)S(=O)(=O)c1ccc(C(=O)OCC(=O)Nc2ccccc2OC(F)F)cc1,-0.187
12,O=C(NCCCNCCCNC(=O)c1ccccn1)c1ccccn1,-0.485
13,O=C(CSc1ccc2ccccc2c1Br)Nc1cccc(S(=O)(=O)NC2=NCCCCC2)c1,active: 14.5
14,O=C(c1cnn2c1NC(c1ccc(Br)cc1)CC2C(F)(F)F)N1CCN2CCCC2C1 (stereo not drawn),0.508
15,COc1ccc(OC)c(-n2nnnc2SCC(=O)Nc2nc(C)c(C)s2)c1,0.197
16,CC(C)(C)CC(=O)Nc1ccc(Nc2ccccc2)cc1,-0.312
17,CCN(CC)C(=O)CN(C#N)c1nc(NC(C)C)nc(NC(C)C)n1,0.172
18,COC(=O)c1ccc(C2C(Oc3ccc(OC)cc3)C(=O)N2CCc2ccc(F)cc2)cc1 (stereo not drawn),-0.263
19,O=C(c1ccc(Cl)s1)N1CCCC1,0.0802
20,CC(=O)NC(c1ccco1)c1ccc2cccnc2c1O (stereo not drawn),-0.271

# From PubChem BioAssay AID488969 (Vanderbilt High Throughput Screening Facility, 2010)
